Test results as given in patent publication US4543349A, “Basic heptapeptide vasopressin antagonists” (priority 1984, dated 1985).
Part of at least one peptide drawing is inferred or uncertain, most often the ends. Starred links: 1 amine or outer side, 2 acyl side, 3 side chain; linkers in the order of their positions; H or OH if unused. Positions of bridges follow the written chain, without caps; N, C: chain ends. Non-standard residues stand in square brackets, D forms with d. Residues, ends and D or L forms follow the SMILES beside them. *: point of attachment. X1 = O=C(CC1(S[*:2])CCCCC1)[*:1]; Agmatine = N=C(N)NCCCCN*; NH(CH2)5NH2 = NCCCCCN*

Key:
[1] = tested on: hydropenic rat; assay: Hydropenic rat screen (anti-ADH activity in vivo); conditions: dose required to lower urine osmolality to 300 m-Osmoles/kg; intraperitoneal; hydropenic male rats
Description: The assay for anti-ADH activity in vivo is the hydropenic rat protocol described below:
Food and water are removed from male rats approximately 18 hours prior to testing. Animals are housed 4 per metabolism cage. At 0 hour, the test compound is administered intraperitoneally to the test group and an equivalent volume of vehicle is administered to both control groups (fasted and non-fasted). Urine volume and osmolality are measured every hour for 4 hours. Test values are recorded as ml of urine excreted (cumulative), mEq/rat electrolyte excreted, mg/rat urea excreted, and osmolality in milli-Osmoles/kg H2 O. A tolerance test is used to determine significance. Ed300 is defined as the dose of compound (μg/kg) required to lower urine osmolality to 300 m-Osmoles/kg.

[2] = biological target: vasopressin stimulated adenylate cyclase; assay: Vasopressin stimulated adenylate cyclase activity, hog kidney medullary tissue; assay type: biochemical; conditions: swine kidney medullary membrane
Description: (§1) In the test procedure for assay of adenylate cyclase activity, the amount of ^32 P/cAMP formed in the absence of medullary membrane is determined (blank). The blank value is subtracted from all experimental data. The compound is tested for its effect on basal adenylate cyclase activity and/or on vasopressin stimulated activity. Each determination is carried out in triplicate. The Ka value is derived from a Lineweaver-Burkeplot. Rel. Vmax =(Vmax drug/Vmax vasopressin)×100. Ki =I/[Ka'/Ka)-1] where I is the concentration of the antagonist, and Ka' and Ka are the concentrations of vasopressin required to give half maximal activity of adenylate cyclase in the presence and absence of antagonist, respectively.

[3] = biological target: vasopressin stimulated adenylate cyclase; assay: Vasopressin stimulated adenylate cyclase activity, human kidney medullary tissue; assay type: biochemical; conditions: human kidney medullary membrane
Description: as §1

SMILES	Rat ED300 [1] [µg/kg]	Ki [2] [nM]	Ki [3] [nM]
CC(C)[C@@H]1NC(=O)[C@H](Cc2ccccc2)NC(=O)[C@@H](Cc2ccc(O)cc2)NC(=O)CC2(CCCCC2)SSC[C@@H](C(=O)N2CCC[C@H]2C(=O)NCCCCCN)NC(=O)[C@H](CC(N)=O)NC1=O [A, [1-(β-Mercapto-β,β -cyclopentamethylenepropionic acid)-2-D-tyrosine-4-valine-8-(1,5-diaminopentane)-8-desarginine-9-desglycineamide]-vasopressin] (HELM PEPTIDE1{[dY].F.V.N.C.P.[NCCCCCN[*:1]]}|CHEM1{[O=C(CC1(S[*:2])CCCCC1)[*:1]]}$PEPTIDE1,CHEM1,1:R1-1:R1|PEPTIDE1,CHEM1,5:R3-1:R2$$$V2.0)	957	11	–
CCOc1ccc(C[C@H]2NC(=O)CC3(CCCCC3)SSC[C@@H](C(=O)N3CCC[C@H]3C(=O)NCCCCCN)NC(=O)[C@H](CC(N)=O)NC(=O)[C@H](C(C)C)NC(=O)[C@H](Cc3ccccc3)NC2=O)cc1 [B, [1-(β-Mercapto-β,β -cyclopentamethylenepropionic acid)-2-(O--ethyl-D-tyrosine)-4-valine-8-(1,5-diaminopentane)-8-desarginine-9-desglycinamide]-vasopressin] ([dY](Et)FVNCP-{NH(CH2)5NH2}; linker N-5 via X1)	27	–	–
CCOc1ccc(C[C@H]2NC(=O)CC3(CCCCC3)SSC[C@@H](C(=O)N3CCC[C@H]3C(=O)O)NC(=O)[C@H](CC(N)=O)NC(=O)[C@H](C(C)C)NC(=O)[C@H](Cc3ccccc3)NC2=O)cc1 [D, [1-(β-Mercapto-β,β -cyclopentamethylenepropionic acid)-2-(O--ethyl-D-tyrosine)-4-valine-8-desarginine-9-desglycinamide]-vasopressin] ([dY](Et)FVNCP-OH; linker N-5 via X1)	> 182	130	–
CC(C)[C@@H]1NC(=O)[C@H](Cc2ccccc2)NC(=O)[C@@H](Cc2ccc(O)cc2)NC(=O)CC2(CCCCC2)SSC[C@@H](C(=O)N2CCC[C@H]2C(=O)O)NC(=O)[C@H](CC(N)=O)NC1=O [E, [1-(β-Mercapto-β,β -cyclopentamethylenepropionic acid)-2-D-tyrosine-4-valine-8-desarginine-9-desglycinamide]-vasopressin] (HELM PEPTIDE1{[dY].F.V.N.C.P}|CHEM1{[O=C(CC1(S[*:2])CCCCC1)[*:1]]}$PEPTIDE1,CHEM1,1:R1-1:R1|PEPTIDE1,CHEM1,5:R3-1:R2$$$V2.0)	> 6000	1800	–
CCOc1ccc(C[C@H]2NC(=O)CC3(CCCCC3)SSC[C@@H](C(=O)NCCCCCN)NC(=O)[C@H](CC(N)=O)NC(=O)[C@H](C(C)C)NC(=O)[C@H](Cc3ccccc3)NC2=O)cc1 [F, [1-(β-Mercapto-β,β -cyclopentamethylenepropionic acid)-2-(O--ethyl-D-tyrosine)-4-valine-7-desproline-8-desarginine-9-desglycinamide-7-(1,5-diaminopentane)]-vasopressin]	94.5	6.8	6.6
CCOc1ccc(C[C@H]2NC(=O)CC3(CCCCC3)SSC[C@@H](C(=O)N3CCC[C@H]3C(=O)NCCCCNC(=N)N)NC(=O)[C@H](CC(N)=O)NC(=O)[C@H](C(C)C)NC(=O)[C@H](Cc3ccccc3)NC2=O)cc1 [G, [1-(β-Mercapto-β,β -cyclopentamethylenepropionic acid)-2-(O--ethyl-D-tyrosine)-4-valine-8-desarginine-9-desglycinamide-8-(1,4-aminoguanidinobutane)]-vasopressin] ([dY](Et)FVNCP-Agmatine; linker N-5 via X1)	22	6	3.5
